Reference: PubChem BioAssay AID1963576 (National Center for Advancing Translational Sciences (NCATS), 2024)
Hit rate of the full screen: of about 46,000 compounds, about 60 (0.1%) were called active. Another 3% or so got no clear call; they are omitted. The call rests on the fitted dose curve; in most records, active means well fitted inhibition curve with a large enough effect; inconclusive means small, poorly fitted or top-dose-only effect; inactive means no such curve, though single readings can be large or run the other way. Some of the results follow.

Assay: Primary qHTS assay for Inhibitors of ovarian cancer metastasis using an organotypic tumor microenvironment (TME) model. Further: nearly all actives have a fitted effect of over 65% in size.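 On activity change, negative = inhibition: plate controls were DMSO wells for no effect and tomatine positive control wells for full effect.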
Conditions: SKOV3ip1-GFP adhesion/invasion on 3D omental model, fluorescence; series mostly up to 45.8 µM; activity change, negative = inhibition: at the top concentration
Summary of the method: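 Adhesion/invasion was scored as fixed GFP-labeled SKOV3ip1 cell counts (488/509 nm), normalized to DMSO and tomatine controls. Cancer cells in serum-free medium, with four compound doses (0.36-46 umol/L), sat 2 hr at RT then 16 hr at 37 C on a 48 hr fibroblast/mesothelial/ECM culture.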

Activity change, negative = inhibition, inactive:
CCOC(=O)c1noc2nc(C)n(CC(=O)Nc3ccc(Br)cc3C)c(=O)c12 -3.17%
N#Cc1cc2c(=O)n3ccccc3nc2n(-c2nnc(SCc3ccccc3F)s2)c1=O 3.5%
CC(C(=O)NCc1ccc(Cl)cc1)n1ccc2cc(S(=O)(=O)N3CCCC3)ccc21 (stereo not given) 0.634%
CC1=C(C(=O)Nc2ccc(C)cc2C)C(c2ccc[nH]2)n2ncnc2N1 (stereo not given) -22.6%
Cc1ccc(-c2nnc3ccccc3c2C(=O)Nc2cccc(C(F)(F)F)c2)cc1 -5.01%
CC(C)OC(=O)c1c(NC(=O)c2cc3nc(-c4ccccc4)cc(C(F)(F)F)n3n2)sc2c1CCCC2 14.3%
COc1ccc(CCNC(=O)CN2C(=O)COc3ccc(S(=O)(=O)N4CCCCCC4)cc32)cc1OC 2.47%
O=C(Cn1ncc2c3ccccc3n(Cc3ccc(Cl)cc3)c2c1=O)NC1CCCCCC1 2.66%
CCc1ccc(CNC(=O)c2cnc3sc(N(CC)CC)nn3c2=O)cc1 5.48%
CCOC(=O)C1CCCN(S(=O)(=O)c2ccc3c(c2)N(C)C(=O)CC(=O)N3C)C1 (stereo not given) 0.252%
COc1cc(-c2nnc(SCC(=O)Nc3cccc(C#N)c3)o2)cc(OC)c1OC 2.82%
Cc1ccc(Cl)cc1N1CCN(S(=O)(=O)c2ccc3c(c2)CC(=O)N3C)CC1 4.68%
CCn1c(SCC(=O)Nc2ccc(C)c(C)c2)nnc1-c1nonc1NC(C)=O 2.46%
CC[C@@]1(O)C(=O)OCc2c1cc1n(c2=O)Cc2cc3cc(O)ccc3nc2-1 8.37%
CCc1ccccc1NC(=O)C(=O)NCCc1sc(-c2cccc(C)c2)nc1C -0.146%
Cc1ccc(NC(=O)c2ccc(CN3CC(=O)N4CCCCC4C3=O)cc2)cc1C (stereo not given) -1.28%
O=c1oc2ccc3ccccc3c2cc1-c1nnc(Nc2cc(C(F)(F)F)ccc2Cl)s1 3.07%
COc1cccc(N2CCN(C(=O)c3nc(-c4ccc(Cl)cc4)n4c3CCCCC4)CC2)c1 9.5%
COCCn1c(SCC(=O)c2c[nH]c3ccccc23)nc2cc(C(=O)NCC(C)C)ccc2c1=O 2.46%
Cc1ccc(O)c(NC(=O)c2nc3nc(C)cc(C(F)F)n3n2)c1 50.2%
Cc1cccc(-c2[nH]c(C(C)(C)C)nc2-c2ccc3nccnc3c2)n1 1.85%
CC[C@H](C)n1cc(C)c2c(C(=O)NCc3c(C)cc(C)[nH]c3=O)cc(-c3ccc(N4CCNCC4)nc3)cc21 -18.8%
Nc1cccc(S(=O)(=O)N2CCCN(S(=O)(=O)c3ccc4c(c3)OCCO4)CC2)c1 -23.8%
CCOC(=O)c1cc2c(=O)n3ccccc3nc2n(CC2CCCO2)c1=NC(=O)c1cc(C)cc(C)c1 (stereo not given) 0.94%
COC(=O)c1ccc(NC(=O)C2CCN(S(=O)(=O)c3ccc4c(c3)CCCN4C(C)=O)CC2)cc1 -3.22%
COc1cc(NC(=O)CSc2nc3nc(C)c(Cc4ccccc4)c(C)n3n2)cc(OC)c1OC 3.72%
CCc1ccc(CNC(=O)c2cc3c(s2)-c2ccccc2OC3)cc1 -12.8%
Cc1nc(N2CCCC2)ncc1C(=O)NCc1ccccc1Cl 2.07%
CCc1nnc2n1N(C(C)=O)C(c1ccc(C(C)(C)C)cc1)=C(C(C)=O)S2 -11.5%
O=S(=O)(c1cccc(Cl)c1)c1nnn2c1nc(NC1CCCC1)c1sccc12 -22.5%
CCCCOc1ccc(C(=O)NCCc2csc3nc(-c4ccccc4F)nn23)cc1 8.17%
Cc1ccc(Cl)cc1N(C)C(=O)c1cc2ccc3cccnc3c2[nH]1 3.88%
CCNC(=O)CC1C(=O)N(c2ccc(F)cc2)C(=O)N1Cc1ccc(C)cc1 (stereo not given) -15.5%
CSc1ncc(C(=O)Nc2cccc(Cl)c2C)c(-c2ccccc2)n1 -9.52%
CCN(CC)C(=O)C1=C(C)Nc2nc3ccccc3n2C1c1ccc(Cl)cc1 (stereo not given) 0.308%
COc1ccccc1CNC(=O)C(Cc1ccccc1)NS(=O)(=O)c1ccc2c(c1)CCN2C(C)=O (stereo not given) 19.4%
O=C(NCc1ccccn1)c1nn(-c2ccccc2Cl)nc1CO -2.91%
CCn1c(CN2CCN(C)CC2)nc2cc(NC(=O)c3cc(OC)c(OC)c(OC)c3)ccc21 -11.5%
CCOc1ccccc1C(=O)NCC(c1ccc(N(C)C)cc1)N1CCCC1 (stereo not given) -2.13%
CS(=O)(=O)N1CCC(N2CCN(Cc3ccc(F)cc3)C(=O)C2=O)CC1 3.29%
CCN(CC)C(=O)C1CCCN(c2ncnc3c2nc2n3CCCCC2)C1 (stereo not given) -0.693%
COCCn1c(CNC(=O)c2cc(OC)c(OC)c(OC)c2)nc2cccnc21 4.1%
CCOc1ccccc1CNC(=O)CN1C(=O)C2CCCCN2c2ccc(C(=O)N(C)C)cc21 (stereo not given) -2.55%
COC(=O)c1ccccc1NC(=O)CCCS(=O)(=O)c1nc(-c2ccccc2OC)cc(C(F)(F)F)n1 1.43%

outcome, inactive:
CCOc1ccccc1N(CC)C(=O)c1cc2c(=O)n(CC)c3ccccc3c2s1
CSc1nnc2c(n1)OC(c1cccc(O)c1Cl)Nc1ccccc1-2 (stereo not given)
Cc1ccc(OCC(=O)Nc2ccccc2C(=O)OCc2cc(=O)n3c(C)csc3n2)cc1
COCCCNC(=O)Cn1c(=O)n(-c2ccc(Cl)cc2)c(=O)c2c3c(sc21)CCCCC3
COCCCNc1ncnc2c1nnn2C
CCCCC(CC)Cn1c(Oc2ccccc2)nc2c1c(=O)n(C)c(=O)n2C (stereo not given)
CCOc1ccc(-n2c(=O)c3sc4ccccc4c3n(Cc3ccc(F)cc3)c2=O)cc1
Cc1[nH]c2c(C)cccc2c1CCNC(=O)c1cc2ccccc2oc1=O
Cc1ccc(N(CC(=O)Nc2ccc(OC(F)(F)F)cc2)S(=O)(=O)c2c(C)noc2C)cc1
Cc1[nH]c2ccccc2c1C1(O)C(=O)N(Cc2ccc(Cl)cc2)c2ccccc21 (stereo not given)
CCc1cccc(C)c1Nc1c(-c2cccc(O)c2)nc2sccn12
COc1ccc(CC(=O)Nc2sc3c(c2C(=O)Nc2ccc(C)cc2)CCCCC3)cc1
Cc1cc(NC(=O)CSc2ncc(C(=O)Nc3ccccc3)c(=O)n2C)no1
Cc1ccccc1NC(=O)c1ccc(CNS(=O)(=O)c2ccc3c(c2)C(C)(C)C(=O)N3C)cc1
CCOC(=O)CNC(=O)Cn1nc(N2CCN(c3ccccc3)CC2)ccc1=O
CC(=O)c1cccc(NC(=O)c2cc(-c3ccc4c(c3)OCCO4)on2)c1
